Screen size: about 310,000 compounds; about 14,000 (4.5%) showed an effect of 50% or more. The effect is printed as a negative number. This is one part of the list.
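Further: peak tail current of the secondary pulse compared with the same well before compound.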

The target in the test is human ether-à-go-go-related gene (hERG) potassium channel (human, UniProt Q12809). Description: primary screen, population patch clamp on CHO cells stably expressing hERG.
Sequence of human ether-à-go-go-related gene (hERG) potassium channel (Q12809 whole entry, looked up): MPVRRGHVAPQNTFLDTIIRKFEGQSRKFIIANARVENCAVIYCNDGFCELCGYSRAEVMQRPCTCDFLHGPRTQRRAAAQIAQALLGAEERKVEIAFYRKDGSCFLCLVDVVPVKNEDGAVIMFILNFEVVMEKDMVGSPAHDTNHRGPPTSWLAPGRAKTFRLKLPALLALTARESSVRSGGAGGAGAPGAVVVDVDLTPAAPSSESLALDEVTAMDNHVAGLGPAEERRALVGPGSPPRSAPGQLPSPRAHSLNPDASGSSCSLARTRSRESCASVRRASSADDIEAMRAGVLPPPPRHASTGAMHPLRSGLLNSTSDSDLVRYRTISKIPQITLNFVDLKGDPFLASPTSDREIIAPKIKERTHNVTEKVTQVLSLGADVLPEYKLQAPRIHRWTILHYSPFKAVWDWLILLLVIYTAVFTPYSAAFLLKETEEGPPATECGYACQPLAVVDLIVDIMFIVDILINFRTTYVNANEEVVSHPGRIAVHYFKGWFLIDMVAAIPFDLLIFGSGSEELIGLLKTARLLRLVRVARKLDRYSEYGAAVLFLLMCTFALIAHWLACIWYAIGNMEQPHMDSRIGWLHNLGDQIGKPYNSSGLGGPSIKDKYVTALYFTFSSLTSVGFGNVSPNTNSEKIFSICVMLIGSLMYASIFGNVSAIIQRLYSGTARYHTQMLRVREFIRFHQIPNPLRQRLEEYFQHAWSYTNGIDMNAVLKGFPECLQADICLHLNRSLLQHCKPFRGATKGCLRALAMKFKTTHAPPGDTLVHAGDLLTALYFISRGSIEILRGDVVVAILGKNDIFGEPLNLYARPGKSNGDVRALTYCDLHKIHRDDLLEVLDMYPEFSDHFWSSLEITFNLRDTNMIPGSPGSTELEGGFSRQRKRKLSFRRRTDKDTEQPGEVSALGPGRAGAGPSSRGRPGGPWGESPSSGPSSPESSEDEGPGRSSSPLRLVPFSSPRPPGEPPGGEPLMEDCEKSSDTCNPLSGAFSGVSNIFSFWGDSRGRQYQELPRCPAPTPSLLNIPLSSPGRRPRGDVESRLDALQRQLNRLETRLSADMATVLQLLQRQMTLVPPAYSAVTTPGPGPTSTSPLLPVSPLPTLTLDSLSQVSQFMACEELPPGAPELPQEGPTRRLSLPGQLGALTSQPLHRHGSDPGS
As to `C/C(=C\C(=O)Nc1cc(C)on1)c1ccccc1`, the “hERG current change (%, negative = inhibition) at 10uM” value turned out to be 0.998%.
Regarding `O=C(CNc1cccc(S(=O)(=O)N2CCCC2)c1)Nc1cccc(Br)c1`, the “hERG current change (%, negative = inhibition) at 10uM” value is -18.5%.
In the case of `CCOC(=O)N1CCN(C(=O)c2ccc3c(SCC(=O)O)c4c(nc3c2)CCC4)CC1` it was 11.3%; in that of `COc1cccc(CN(C(=O)/C=C/c2ccc(Cl)cc2)C2CCS(=O)(=O)C2)c1` (stereo not shown), -25.9%.
In the case of `Cn1c(=O)c2c(nc(CN3CCC(C(N)=O)CC3)n2Cc2ccccc2F)n(C)c1=O` it was -5.91%; in that of `COc1ccc(C(C(=O)NC(C)(C)C)N(Cc2cccs2)C(=O)CCC(=O)Nc2cc(C)on2)cc1` (stereo not shown), -9.02%; in that of `CN(CCCN1CCOCC1)C(=O)c1cc(COc2ccc(F)cc2F)on1`, -20.8%.
Take `COc1ccc(-c2c(C)n([O-])c(C)c(C)[n+]2=O)cc1OC`: the “hERG current change (%, negative = inhibition) at 10uM” value is 17.6%.
In the case of `Cc1cc(C(=O)N/N=C/c2cc(Cl)cc([N+](=O)[O-])c2O)c2ccccc2n1` it was 11.4%; in that of `O=C(c1ccc(Cl)cc1)[C@@H]1[C@@H]2C(=O)N(c3cccc4ccccc34)C(=O)[C@@H]2C2c3ccccc3C=NN21` (stereo partly shown), 7.79%; in that of `CC(C)c1ccc(OCC(=O)NCc2ccccc2)cc1`, -2.13%.
In the case of `O=S(=O)(c1ccccc1)n1nc(-c2ccccc2)nc1NCc1ccco1` it was 2.1%; in that of `COc1ccc(C(=O)Nc2cc3c(oc2=O)CCCC3=O)cc1`, 6.51%.
Regarding `O=C(CN1CCN(c2ccc(O)cc2)CC1)Nc1ccccc1C(=O)NCCc1ccccc1`, the “hERG current change (%, negative = inhibition) at 10uM” value is given as -9.24%.
For `O=C(CCl)NCC1CCCO1` (stereo not shown), the “hERG current change (%, negative = inhibition) at 10uM” value is 9.13%.
In the case of `Cc1cc(C)n2nc(C)c(-c3ccc(Cl)cc3)c2n1` it was 27.1%; in that of `Cc1ccc2oc(C(=O)N(Cc3ccncc3)CC3CCCO3)c(C)c2c1` (stereo not shown), -34.9%.
In the case of `O=C(CCc1ccccc1)NCCSCc1c(F)cccc1Cl` it was -20.1%; in that of `Cc1ccccc1C(=O)NCC(=O)c1ccccc1`, 3.95%.
For `CCN(CC)c1ccc(S(=O)(=O)N2CCOCC2)cc1NC(=O)CSC(=S)N1CCCC1`, the “hERG current change (%, negative = inhibition) at 10uM” value was -32.2%.
In the case of `CCN(CC)S(=O)(=O)c1cc(NC(=O)c2ccc3c(c2)NC(=O)C(C)S3)ccc1C` (stereo not shown) it was 7.08%; in that of `O=C(N/N=C/c1cn(-c2ccccc2)nc1-c1cc2ccccc2o1)c1c[nH]c2ccccc12`, 13.2%.
In the case of `Cc1ccccc1CN(C)CC(=O)NC(C)CCc1ccccc1` (stereo not shown) it was -17.2%; in that of `COc1ccc(N2CCN(C(=O)CCN3C(=S)NC(C)(C)CC3C)CC2)cc1` (stereo not shown), 13.9%.
As to `COc1ccc(CCNc2c(C)c(C)nc3ncnn23)cc1`, the “hERG current change (%, negative = inhibition) at 10uM” value was -14%.
In the case of `COc1ccc(CNC(=O)COC(=O)c2cccc(S(=O)(=O)N3CCOCC3)c2)cc1` it was -24.5%.
In the case of `Cc1cc(F)ccc1NCc1ccncc1` it was -13.2%.
In the case of `O=C(Cc1cccs1)N(Cc1ccco1)C1(C(=O)NC2CCCCC2)CCCCC1` it was -8.09%.
`CCOC(=O)N1CCN(S(=O)(=O)c2ccc(C(=O)Nc3nc4c(s3)CC(C)CC4)cc2)CC1` (stereo not shown): the “hERG current change (%, negative = inhibition) at 10uM” value is 16.2%.
In the case of `CCc1ccc(NC(=O)CN(c2ccc(OC)cc2)S(=O)(=O)c2c(C)nn(C)c2C)cc1` it was -4.36%; in that of `COc1cc(-c2nc(S(=O)(=O)c3ccc(C)cc3)c(N3CCOCC3)o2)cc(OC)c1OC`, -20.1%.
In the case of `N#CC1=C2SCN(Cc3ccccc3)CN2C(=O)CC1c1cccs1` (stereo not shown), the “hERG current change (%, negative = inhibition) at 10uM” value was 6.44%.
With `CCn1c(=O)c(C(=O)Nc2ccccc2)c(O)c2ccccc21`, the “hERG current change (%, negative = inhibition) at 10uM” value is 20.5%.
In the case of `CC1=C(C(N)=O)C(c2ccncc2)n2nc(-c3ccccc3Cl)nc2N1` (stereo not shown) it was 8.54%; in that of `Cc1ccc(C(=O)Nc2ccccc2N2CCN(C(=O)C(C)C)CC2)cc1`, -19.1%; in that of `COc1nc(N/N=C/c2ccc(-c3ccccc3[N+](=O)[O-])o2)nc(N2CCOCC2)n1`, -15.7%.
On to `CCCCOC(=O)n1c(=O)oc2ccccc21`, for which the “hERG current change (%, negative = inhibition) at 10uM” value is -3.79%.
For the molecule `CCC(COC(=O)NC)NC(=O)Oc1cccc(C)c1` (stereo not shown), the “hERG current change (%, negative = inhibition) at 10uM” value was -0.233%.
Take `COc1cccc(-c2c[nH]c(=O)[nH]c2=O)c1`: the “hERG current change (%, negative = inhibition) at 10uM” value is 16.1%.
In the case of `CCN(CC)CCCn1c2c(c(SCC(=O)Nc3cc(C)on3)nc1=O)CCC2` it was -2.43%; in that of `c1ccc(CCN2CCC3(CC2)OCCO3)cc1`, 7.75%; in that of `O=C(CN1C(=O)COc2ccccc21)c1ccc(Cl)cc1`, -41.1%.
In the case of `CN1C(=O)[C@@H]2[C@H](C1=O)[C@@H]1C(=O)Nc3ccccc3C(=O)N1[C@@H]2c1ccc(Br)cc1` it was -31.7%.
As to `CCCCC(C(=O)NC(C)c1ccccc1)C(=O)NC(C)c1ccccc1` (stereo not shown), the “hERG current change (%, negative = inhibition) at 10uM” value is recorded as -6.81%.
In the case of `O=C(c1ccc(S(=O)(=O)c2ccccc2Cl)c([N+](=O)[O-])c1)N1CCCCCC1`, the “hERG current change (%, negative = inhibition) at 10uM” value is recorded as -11%.
As to `O=C(c1cc(-c2ccc(Cl)cc2Cl)on1)N1CCN(C(=O)c2ccco2)CC1`, the “hERG current change (%, negative = inhibition) at 10uM” value is on record as -70.2%.
Turning to `O=C(O)COc1ccc(C(=O)Cc2ccc3c(c2)OCCCO3)c(O)c1`, the “hERG current change (%, negative = inhibition) at 10uM” value is on record as 0.9%.
In the case of `C=CCC(NCc1ccco1)c1ccc(OC)cc1` (stereo not shown) it was -0.124%; in that of `Cc1ccc(NS(=O)(=O)c2ccc(C(=O)NCCCN3CCOCC3)cc2)cc1`, -1.13%; in that of `CCOc1cc(C(C(=O)NCC2CCCO2)N(C(=O)Cn2nnc3ccccc32)c2ccccc2C(C)=O)ccc1O` (stereo not shown), 24.5%.
In the case of `CC(C)CC1NC(=O)N(CC(=O)Nc2ccc(-c3ccccc3)cc2)C1=O` (stereo not shown) it was -0.474%.
In the case of `COc1cccc(CNC(=O)COC(=O)c2cc(Br)c(Br)s2)c1` it was 14.8%; in that of `CC(=O)NC1C(OCc2ccccc2)OC(COC(C)=O)C(OC(C)=O)C1OC(C)=O` (stereo not shown), 21.1%; in that of `C/C(=N/N1CCN(Cc2cccc3ccccc23)CC1)c1cccnc1`, -50.1%.
On to `COc1ccc2nc(NC(=O)CCN3C(=O)c4ccccc4C3=O)sc2c1`, for which the “hERG current change (%, negative = inhibition) at 10uM” value is -10.7%.
In the case of `O=c1ccc(-c2n[nH]c(=S)n2-c2ccc(F)c(Cl)c2)n[nH]1`, the “hERG current change (%, negative = inhibition) at 10uM” value came out at 25%.
Regarding `O=C(CSc1ccccn1)N1CCN(c2ncc(C(F)(F)F)cc2Cl)CC1`, the “hERG current change (%, negative = inhibition) at 10uM” value was -63.9%.
In the case of `C=CCN(c1ccc(C(=O)Nc2ccc(C)cc2)cc1)S(C)(=O)=O` it was -4.31%; in that of `Cc1ccc(OCC(=O)NC(=S)Nc2cccc(NC(=O)c3ccccc3Cl)c2)cc1`, -0.653%.
In the case of `Cc1ccc(NC(=O)CN(C)C(=O)/C=C/c2ccc3c(c2)OCO3)cc1` it was -18.1%; in that of `CCN(CC(=O)NC(=O)NCc1ccccc1)Cc1nc2ccccc2c(=O)[nH]1`, -12.9%; in that of `N/C(=N\OC(=O)Cc1ccccc1)c1ccncc1`, 5.47%.
As for `CCOC(=O)NC1(C(F)(F)F)C(=O)NC(C)=C1C(=O)OC` (stereo not shown), the “hERG current change (%, negative = inhibition) at 10uM” value was -0.763%.
In the case of `CC(CCc1ccccc1)NC(=O)CCCCCNc1nc(=S)[nH]c2ccccc12` (stereo not shown) it was 6.95%; in that of `Cc1nc(SCC#N)c2c3c(sc2n1)CCC3`, -2.54%; in that of `Cc1cc(OCC(=O)NC(Cc2ccc(Cl)cc2)C(=O)O)c2c(C)cc(=O)oc2c1` (stereo not shown), 4.88%.
On to `CC(=O)Oc1cccc(/C=C2\Sc3ccccc3C2=O)c1`, for which the “hERG current change (%, negative = inhibition) at 10uM” value was 7.73%.
In the case of `CC(=O)Nc1ccc(N2CCN(c3ccc(C(F)(F)F)cn3)CC2)nc1`, the “hERG current change (%, negative = inhibition) at 10uM” value is on record as -3.49%.
Take `O=C(COC(=O)Cc1c[nH]c2ccccc12)Nc1cccc2ccccc12`: the “hERG current change (%, negative = inhibition) at 10uM” value was 5.37%.
As for `Cc1noc(C)c1S(=O)(=O)N1CCC2(CC1)OCCO2`, the “hERG current change (%, negative = inhibition) at 10uM” value was determined as 11.9%.
In the case of `Cc1nnc(SCCn2c(N3CCN(C)CC3)nc3c2c(=O)[nH]c(=O)n3C)s1` it was 7.16%; in that of `CCOC(=O)c1n[nH]n2c1nc(=O)c1ccccc12`, 14.2%.
In the case of `Cc1ccc(C(=O)NCCN2C3=NC[C@H](C(C)C)N3C[C@H]2Cc2ccc(O)cc2)cc1Br` it was -26.3%.
Regarding `COc1ccc(N2C(=O)C(CC(N)=O)N(NC(=O)c3cccc(OC)c3)C2=S)cc1` (stereo not shown), the “hERG current change (%, negative = inhibition) at 10uM” value worked out at 33.2%.
Take `CCOC(=O)N1CCN(S(=O)(=O)c2ccc(-n3cnnn3)cc2)CC1`: the “hERG current change (%, negative = inhibition) at 10uM” value is recorded as -61.4%.
Turning to `CCCS(=O)(=O)c1c(S(=O)(=O)CCC)c2c(N)cccn2c1C(=O)c1ccccc1`, the “hERG current change (%, negative = inhibition) at 10uM” value is listed as -0.347%.
In the case of `CC(=O)Nc1ccc(NC(=O)COC(=O)CCCc2c[nH]c3ccccc23)cc1` it was -1.71%; in that of `CS(=O)c1ccccc1-c1nc(-c2ccc(Cl)cc2)no1` (stereo not shown), 4.09%.
In the case of `O=C(CN1C(=O)c2ccccc2S1(=O)=O)NC1CCCC1` it was 6.01%; in that of `Cc1c(C(=O)O)cccc1-c1ccc(/C=C2/NC(=O)N(c3ccccc3)C2=O)o1`, 47.6%.
Turning to `CC(C)CN(C(=O)CCc1ccccc1)c1c(N)n(CC(C)C)c(=O)[nH]c1=O`, the “hERG current change (%, negative = inhibition) at 10uM” value is on record as 1.3%.
In the case of `CCOc1ccc(OCCN2C(=O)NC3(CCCc4ccccc43)C2=O)cc1` (stereo not shown) it was -19.8%; in that of `CCN1CCN(C(=O)C2COc3ccccc3O2)CC1` (stereo not shown), -7.48%; in that of `CCOC(=O)c1cc(C)n(-c2ccccc2)c1C`, 7.23%.
In the case of `Cc1ccc(S(=O)(=O)Cn2nnnc2C(C)N2CCN(C(=O)c3ccco3)CC2)cc1` (stereo not shown) it was -23.2%.

The record behind these values is article PMC4336329 (PLoS ONE, 2015).
